Laboratory results from PubChem BioAssay AID485294 (National Center for Advancing Translational Sciences (NCATS), 2010).
The whole screen tested about 370,000 compounds, of which about 150 (0.041%) were called active. The shares of active, inactive and inconclusive entries below differ from those in the screen. Calls follow the shape of the dose curve; as a rule, active = well fitted inhibition curve with a large enough effect; inconclusive = small, poorly fitted or top-dose-only effect; inactive = flat fitted curve, though single readings scatter. Potencies of inconclusive entries are left out as doubtful fits.

Target: Beta-lactamase (Escherichia coli (strain K12)) (UniProt P00811)
Assay: qHTS Inhibitors of AmpC Beta-Lactamase (assay with detergent); also: nearly all actives have a fitted effect of over 25% in size;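 as to activity change, negative = inhibition: 0% = no-compound wells and -100% = no-enzyme wells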
Settings: AmpC hydrolysis of nitrocefin, absorbance 480 nm, 0.01% Triton; activity change, negative = inhibition: at 114 µM (top of the series)
Summary of the method: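 20 mM phosphate pH 7.0 + 0.01% (detergent screen) or 0.0001% Triton X-100; 5.3 nM AmpC reagent; cpd preinc 15 min RT; nitrocefin (800 uM stock) to start; A480 q20 s × 4 min; Activity was normalised to no-enzyme and no-compound control wells.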
Potency is read from the fitted curve at half-maximal effect; tags tell the direction and shape of the fitted curve.

UniProt P00811, sequence (P00811 whole entry, looked up): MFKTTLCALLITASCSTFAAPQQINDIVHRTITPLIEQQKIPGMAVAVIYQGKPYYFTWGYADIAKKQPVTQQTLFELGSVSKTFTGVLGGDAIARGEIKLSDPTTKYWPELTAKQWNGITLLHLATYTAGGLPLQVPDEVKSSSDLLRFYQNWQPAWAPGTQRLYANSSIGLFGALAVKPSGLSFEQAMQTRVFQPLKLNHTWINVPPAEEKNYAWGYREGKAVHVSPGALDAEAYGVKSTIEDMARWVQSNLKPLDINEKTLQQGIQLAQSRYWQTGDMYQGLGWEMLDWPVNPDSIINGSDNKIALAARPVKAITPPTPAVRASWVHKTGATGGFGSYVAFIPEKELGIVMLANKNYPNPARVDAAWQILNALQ

Structure (SMILES)	Potency	activity change, negative = inhibition
O=[N+]([O-])c1cc(S(=O)(=O)NC2=NCCCCC2)ccc1Cl	inconclusive [inhibitor, full curve]	–
O=C(NCc1cccnc1)Nc1ccccc1C(F)(F)F	inconclusive [inhibitor, full curve]	–
NC(=O)C1CCN(CC(=O)Nc2nccs2)CC1	inconclusive [inhibitor, full curve, poor fit]	–
O=C(C1CCCN1S(=O)(=O)c1ccc(Cl)c(Cl)c1)N1CCCCC1 (stereo not given)	inconclusive [inhibitor, full curve]	–
COc1ccccc1CNC(=O)Cn1ccc2cc(S(=O)(=O)N3CCCC3)ccc21	inconclusive [inhibitor, partial curve]	–
Cc1nc(-c2ccc(NC(=O)C(C)(C)C)cc2)c(-c2ccccc2)o1	–	inactive: -9.67%
N#CC1=C(N)Oc2cc(O)c(Cl)cc2C1c1ccccc1F (stereo not given)	–	inactive: -10.3%
Cc1ccccc1NC(=O)c1sc2nc3n(c(=O)c2c1C)N=C(c1ccccc1)CS3	–	inactive: -6.84%
COc1cccc(/C=C/C(=C2/C(=O)N(c3ccccc3)N=C2C)c2ccc(C)cc2)c1OC	inconclusive [inhibitor, full curve, poor fit]	–
COc1c(C)cc(Br)cc1C(=O)Nc1ccc(S(N)(=O)=O)cc1	inconclusive [inhibitor, partial curve, poor fit]	–
COc1ccc2nc(N3CCN(C(=O)CS(=O)(=O)c4ccc(C)cc4)CC3)sc2c1	–	inactive: 2.96%
COc1ccc(CNC(=O)C2CCN(S(=O)(=O)N3CCCCC3)CC2)c(OC)c1	–	inactive: -11.9%
COc1ccc(OC)c(N(C)S(=O)(=O)c2ccc3c(c2)NC(=O)CC(=O)N3)c1	–	inactive: 6.82%
COc1ccccc1N1CCN(C(=O)CN(Cc2ccccc2)S(C)(=O)=O)CC1	inconclusive [inhibitor, full curve, poor fit]	–
COc1ccc(-c2cc(C(F)F)n3ncc(C(=O)N4CCc5ccccc54)c3n2)cc1	–	inactive: 0.297%
CC(=O)c1cccc(NC(=O)NCCc2c[nH]c3ccccc23)c1	–	inactive: -6.81%
CC(N=c1ccccn1C(=O)Nc1ccc(F)cc1)c1ccco1 (stereo not given)	inconclusive [inhibitor, full curve, poor fit]	–
[O-][n+]1onc2c1CCc1nnc(-c3ccccc3)cc1-2	inconclusive [inhibitor, partial curve]	–
Cc1ccc(NC(=O)CCC(=O)N2CCC(C)CC2)c([N+](=O)[O-])c1	–	inactive: -7.82%
CCN1C(=O)C(Cc2nc3ccccc3c(=O)n2C)c2ccccc21 (stereo not given)	inconclusive [inhibitor, full curve, poor fit]	–
